Assay results as given in PMC6212790.
Some of the results follow. At the low end of the ranking, values are background and their order means little.

What follows are sequences tested against T1, GST-Rok-C97-191 (UniProt O34857) (assay: protein binding microarray). Details: Rok is a gene silencer of Bacillus subtilis; high values mean tight binding; most listed sequences are background and not binding sites; double strand, one strand shown.
T1 sequence: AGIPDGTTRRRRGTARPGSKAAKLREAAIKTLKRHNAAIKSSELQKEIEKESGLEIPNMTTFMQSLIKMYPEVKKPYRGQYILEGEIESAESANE
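Also: rank score from −0.5 (least bound) to 0.5 (best bound).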

Row | Sequence | binding signal
1 | TGAGGAAA | -0.0897 E-score
2 | GATTTAGC | 0.176 E-score
3 | CCGGTCAG | 0.00515 E-score
4 | AATGTGTC | 0.0699 E-score
5 | CATTTATA | 0.354 E-score
6 | AATTAAGC | 0.109 E-score
7 | ATATAGTC | 0.225 E-score
8 | CCAATCGA | -0.0716 E-score
9 | ACACTCCG | -0.049 E-score
10 | GATCCCAA | -0.0704 E-score
11 | ACATCGGC | -0.0941 E-score
12 | ACACATGC | 0.0174 E-score
13 | CATGGCCG | -0.2 E-score
14 | ACCGAGGG | -0.246 E-score
15 | AGCGACCC | -0.067 E-score
16 | CACTCCGA | -0.102 E-score
17 | GGGCAGAC | -0.362 E-score
18 | AGGCACCC | -0.15 E-score
19 | CATTGTCG | -0.0906 E-score
20 | TCTACGAA | 0.163 E-score
21 | CCCCGCTC | -0.0979 E-score
22 | GAGCTGCC | 0.0253 E-score

Row | Sequence | binding signal
23 | ATCGCGTA | 0.169 E-score
24 | CTATTCCC | -0.00501 E-score
25 | GTTCCTGA | -0.0326 E-score
26 | AACCTTGT | -0.0394 E-score
27 | GTGGATTA | 0.043 E-score
28 | CCGGATCA | -0.0842 E-score
29 | TCCCCGAA | -0.174 E-score
30 | TCCACTCA | -0.127 E-score
31 | CCGGTAAC | -0.0286 E-score
32 | GCATGGTA | 0.176 E-score
33 | ACGAGCTG | -0.107 E-score
34 | AAATAGCG | 0.13 E-score
35 | ATGCACAG | -0.0539 E-score
36 | AGTGTGAG | 0.0718 E-score
37 | ACAGTGTA | 0.189 E-score
38 | GCACTCTA | 0.0351 E-score
39 | TCCTCCCA | -0.194 E-score
40 | ACGATATA | 0.254 E-score
41 | CGACACGC | -0.119 E-score
42 | GCCACACC | -0.0569 E-score
43 | ACCCAAAG | -0.178 E-score
44 | AACGCCAC | -0.199 E-score

Row | Sequence | binding signal
45 | GTGCTCAA | -0.219 E-score
46 | AGTCCAGC | -0.059 E-score
47 | ATTTGGGG | -0.231 E-score
48 | GTTAACCA | 0.089 E-score
49 | GCCCGGCA | -0.11 E-score
50 | AGCTTTAG | -0.00686 E-score
51 | CATAGCAA | 0.217 E-score
52 | CTACCGCA | 0.159 E-score
53 | GGGCCAAA | 0.0145 E-score
54 | GAAAGTCA | -0.0265 E-score
55 | GCATCCTA | 0.129 E-score
56 | GTCTTAGA | -0.0417 E-score
57 | GAAATAGA | 0.162 E-score
58 | ATCACCGA | -0.193 E-score
59 | CGAGACCA | -0.3 E-score
60 | CTCCTTCA | -0.156 E-score
61 | ATTCCGTC | -0.0499 E-score
62 | CACAGGCA | -0.142 E-score
63 | AGCAAGGC | -0.185 E-score
64 | AGTCCCCC | -0.336 E-score
65 | GGACCGAC | -0.132 E-score
66 | ACATCCAA | 0.0324 E-score

Row | Sequence | binding signal
67 | ACTCAAAC | -0.0678 E-score
68 | GGTGGTAA | 0.17 E-score
69 | CATTCCGG | 0.16 E-score
70 | CATCGTAA | 0.115 E-score
71 | ATGATCAT | 0.251 E-score
72 | GTTTTCGA | 0.0807 E-score
73 | CCCTCGCC | -0.239 E-score
74 | CAGATAGG | 0.0813 E-score
75 | GTACGAAC | -0.0337 E-score
76 | AGTATCTG | 0.198 E-score
77 | ATCCAGTA | 0.14 E-score
78 | CTGAGTTA | 0.131 E-score
79 | CTAATCAA | 0.0936 E-score
80 | CGATACAA | 0.147 E-score
81 | CGCTTTCA | 0.0312 E-score
82 | CTCGAACC | -0.129 E-score
83 | GCCTAGGC | -0.309 E-score
84 | GCGGCTCC | -0.366 E-score
85 | CAGCATAC | 0.0167 E-score
86 | ACACGTAA | 0.0742 E-score
